Article PMC4650712, “Conversion of cell-survival activity of Akt into apoptotic death of cancer cells by two mutations on the BIM BH3 domain” (Cell Death & Disease, 2015)

Tests used:
BCL-2 = experiment: ITC binding to BCL-2; conditions: 25 °C, 20 mM Tris-HCl (pH 7.5), 350 mM NaCl, peptide (0.2 mM) titrated into BCL-2 (20 μM), three independent experiments
Excerpt: To test if phosphorylated BH3BIM(I155R/E158S) binds to the BCL-2 family proteins more tightly than its unphosphorylated version, we produced recombinant BCL-2 and BCL-XL proteins, and also prepared two 21-mer synthetic peptides: BH3BIM(I155R/E158S) and phosphorylated BH3BIM(I155R/E158S) at Ser158, which is referred to as p-BH3BIM(I155R/E158S) (Figure 1). […] Thus, phosphorylated Ser158 appeared to replace the role of Glu158 in the BH3 sequence.
Figure 3 Phosphorylation-dependent binding of BH3BIM(I155R/E158S) to BCL-2 and BCL-XL. (a–d) The ITC analyses were carried out by titrating the indicated peptides (0.2 mM) into BCL-2 or BCL-XL (20 μM). The KD values were deduced from curve fittings of the integrated heat per mole of added ligand (insets). (e) Competition assay. The BH3BIM(I155R/E158S) peptide was incubated with cell lysate containing overexpressed Akt (wild type (WT), constitutively active form (CA) or kinase-dead (KD) mutant) and HA-tagged BCL-2 protein. […] After washing, bound HA-tagged BCL-2 was detected by immunoblotting. […]
All measurements were carried out at 25 °C on a microcalorimetry system iTC200 (GE Healthcare). […] Dilution enthalpies were measured in separate experiments (titrant into buffer) and subtracted from the enthalpies of the binding between the protein and the titrant. Data were analyzed using the Origin software (OriginLab Corp., Northampton, MA, USA). […]

BCL-2 / GST-PUMA = experiment: Competition assay: displacement of HA-tagged BCL-2 from GST-PUMA; format: binding, mouse BCL-2; conditions: pulldown, immunoblot
Experimental: Figure 3 Phosphorylation-dependent binding of BH3BIM(I155R/E158S) to BCL-2 and BCL-XL. (a–d) The ITC analyses were carried out by titrating the indicated peptides (0.2 mM) into BCL-2 or BCL-XL (20 μM). The KD values were deduced from curve fittings of the integrated heat per mole of added ligand (insets). (e) Competition assay. The BH3BIM(I155R/E158S) peptide was incubated with cell lysate containing overexpressed Akt (wild type (WT), constitutively active form (CA) or kinase-dead (KD) mutant) and HA-tagged BCL-2 protein. This mixture was incubated with GST-PUMA bound to glutathione agarose resin. After washing, bound HA-tagged BCL-2 was detected by immunoblotting. Detection of p-S9-GSK3β was to monitor the Akt activity. Input: used cell lysates and GST-PUMA. EV: empty vector transfection.
We indirectly tested this possibility by employing PUMA and BCL-2, whose intermolecular interaction is tighter than that between BAX (or BAK) and BCL-2,[15] to obviate complications in using full-length BAX or BAK. Recombinant human PUMA fused to GST (GST-PUMA) was produced, and HEK293 cells were prepared to transiently overexpress BCL-2 and one of the three forms of Akt: wild-type, constitutively active or kinase-dead form. Each cell lysate was incubated with BH3BIM(I155R/E158S) and GST-PUMA. […]

BAX or PUMA = experiment: Expression of BAX or PUMA in PC3 cells; format: cell-based; conditions: 24 h
Experimental: For efficient cytoplasmic delivery of the proteins, we applied a novel technique of using gold nanoparticles (AuNPs) coated with anti-GST DNA aptamers.[37] To apply this technique, GST-fused the BH3BIM peptides were produced and incubated with AuNPs coated with anti-GST DNA aptamer. […] We confirmed that GST-BH3BIM-coated AuNPs were effectively incorporated into the cells (Figure 7b). To confirm the cytotoxic effect of each protein, we performed the trypan blue dye exclusion assay and counted viable cells.
Figure S4. […] PC3 cells were incubated with indicated materials for 24 hr.

Compound	Kd (BCL-2) [nM]	effect on BCL-2/GST-PUMA binding (BCL-2 / GST-PUMA; HEK293 lysate with kinase-dead Akt)	effect on BCL-2/GST-PUMA binding (BCL-2 / GST-PUMA; HEK293 lysate with wild-type or constitutively active Akt)	expression of proapoptotic proteins BAX or PUMA (BAX or PUMA)
CC[C@H](C)[C@H](NC(=O)[C@H](Cc1c[nH]c2ccccc12)NC(=O)[C@@H](NC(=O)[C@H](CCC(=O)O)NC(C)=O)[C@@H](C)CC)C(=O)N[C@@H](C)C(=O)N[C@@H](CCC(N)=O)C(=O)N[C@@H](CCC(=O)O)C(=O)N[C@@H](CC(C)C)C(=O)N[C@@H](CCCNC(=N)N)C(=O)N[C@@H](CCCNC(=N)N)C(=O)N[C@@H](CCCNC(=N)N)C(=O)NCC(=O)N[C@@H](CC(=O)O)C(=O)N[C@@H](COP(=O)(O)O)C(=O)N[C@@H](Cc1ccccc1)C(=O)N[C@@H](CC(N)=O)C(=O)N[C@@H](C)C(=O)N[C@@H](Cc1ccc(O)cc1)C(=O)N[C@@H](Cc1ccc(O)cc1)C(=O)N[C@@H](C)C(=O)N[C@@H](CCCNC(=N)N)C(N)=O [p-BH3BIM(I155R/E158S)] (Ac-EIWIAQELRRRGD[pS]FNAYYAR-NH2)	8.55	–	–	–
Ac-EIWIAQELRRRGDSFNAYYAR-NH2 [BH3BIM(I155R/E158S)]	192	did not interfere with the binding interaction	abolished the binding between BCL-2 and GST-PUMA	did not alter the expression of proapoptotic proteins such as BAX or PUMA

Square brackets hold non-standard residues; d marks the D form. Peptide text beside a SMILES is read from it. pS = N[C@@H](COP(=O)(O)O)C(=O)O
